# Measurements taken from the supplement of paper PMC8728848.
# This is one part of the list.
# B1: Epa7 (Candida glabrata), Q6DTM6_CANGB (protein)
# chain: MGSSHHHHHHSSGLVPRGSHMKDDYSSFLSNNNLGWTDPTEFPLGCSPNVTTPKNGLSMELYSYDLRKNGSYPCWDAAYLDPNYPRTGYKSHRLLAKVDGVTGNINFYYHATKGCTPEIDHLPASYNYPKPLTMTNFTMLLYGYFKPKVTGYHTFTISADDLLFVNFGAGNAFDCCKRESSADDFGNYQAYAVWGSQTAKDDLTVHLDAGLYYPIRIFFNNREYDAELSLTLKTESDSNPVIDFSDYFYSFDDTKDGCPGLVSYDTS
# What was measured:
# Experiment in all cases: glycan array binding signal (z-score within array); higher = stronger binding
# Conditions in all cases: glycan notation: IUPAC condensed, linker removed
# [1] = target: Fuc(a1-2)[Gal(a1-3)]Gal(b1-3)GlcNAc(b1-3)GalNAc
# In short: (§1)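 The binding signal is a Z-score computed within each array. Data were drawn from 3228 arrays in the Consortium for Functional Glycomics database, restricted to those with a known protein sequence. Scores were averaged over arrays of the same protein sequence at different concentrations or buffers, and over linkers, and negative values can be taken as non-binding.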
# [2] = target: Fuc(a1-2)[Gal(a1-3)]Gal(b1-3)GlcNAc(b1-6)GalNAc
# In short: as §1
# [3] = target: Fuc(a1-2)[Gal(a1-3)]Gal(b1-4)Glc
# In short: as §1
# [4] = target: Fuc(a1-2)[Gal(a1-3)]Gal(b1-4)GlcNAc
# In short: as §1
# [5] = target: Fuc(a1-2)[Gal(a1-3)]Gal(b1-4)GlcNAc(b1-2)Man
# In short: as §1
# [6] = target: Fuc(a1-2)[Gal(a1-3)]Gal(b1-4)GlcNAc(b1-2)Man(a1-3)[Fuc(a1-2)[Gal(a1-3)]Gal(b1-4)GlcNAc(b1-2)Man(a1-6)]Man(b1-4)GlcNAc(b1-4)GlcNAc
# In short: as §1
# [7] = target: Fuc(a1-2)[Gal(a1-3)]Gal(b1-4)GlcNAc(b1-2)Man(a1-3)[Fuc(a1-2)[Gal(a1-3)]Gal(b1-4)GlcNAc(b1-2)Man(a1-6)]Man(b1-4)GlcNAc(b1-4)[Fuc(a1-6)]GlcNAc
# In short: as §1
# [8] = target: Fuc(a1-2)[Gal(a1-3)]Gal(b1-4)GlcNAc(b1-3)GalNAc
# In short: as §1
# [9] = target: Fuc(a1-2)[Gal(a1-3)]Gal(b1-4)GlcNAc(b1-3)[Fuc(a1-2)[Gal(a1-3)]Gal(b1-4)GlcNAc(b1-6)]GalNAc
# In short: as §1
# [10] = target: Fuc(a1-2)[Gal(a1-3)]Gal(b1-4)GlcNAc(b1-6)GalNAc
# In short: as §1
# [11] = target: Fuc(a1-2)[Gal(a1-3)]Gal(b1-4)[Fuc(a1-3)]Glc
# In short: as §1
# [12] = target: Fuc(a1-2)[Gal(a1-3)]Gal(b1-4)[Fuc(a1-3)]GlcNAc
# In short: as §1
# [13] = target: Fuc(a1-2)[Gal(a1-3)]Gal(b1-4)[Fuc(a1-3)]GlcNAc(b1-3)GalNAc
# In short: as §1
# [14] = target: Fuc(a1-2)[Gal(a1-4)]Gal(b1-4)GalNAc
# In short: as §1
# [15] = target: Fuc(a1-2)[Gal(a1-4)]Gal(b1-4)GlcNAc
# In short: as §1
# [16] = target: Fuc(a1-2)[GalNAc(a1-3)]Gal
# In short: as §1
# [17] = target: Fuc(a1-2)[GalNAc(a1-3)]Gal(b1-3)GalNAc(a1-3)[Fuc(a1-2)]Gal(b1-4)GlcNAc
# In short: as §1
# [18] = target: Fuc(a1-2)[GalNAc(a1-3)]Gal(b1-3)GalNAc(b1-3)Gal(a1-4)Gal(b1-4)Glc
# In short: as §1
# [19] = target: Fuc(a1-2)[GalNAc(a1-3)]Gal(b1-3)GlcNAc
# In short: as §1
# [20] = target: Fuc(a1-2)[GalNAc(a1-3)]Gal(b1-3)GlcNAc(b1-2)Man(a1-3)[Fuc(a1-2)[GalNAc(a1-3)]Gal(b1-3)GlcNAc(b1-2)Man(a1-6)]Man(b1-4)GlcNAc(b1-4)GlcNAc
# In short: as §1
# [21] = target: Fuc(a1-2)[GalNAc(a1-3)]Gal(b1-3)GlcNAc(b1-2)Man(a1-3)[Fuc(a1-2)[GalNAc(a1-3)]Gal(b1-3)GlcNAc(b1-2)Man(a1-6)]Man(b1-4)GlcNAc(b1-4)[Fuc(a1-6)]GlcNAc
# In short: as §1
# [22] = target: Fuc(a1-2)[GalNAc(a1-3)]Gal(b1-3)GlcNAc(b1-3)GalNAc
# In short: as §1
# [23] = target: Fuc(a1-2)[GalNAc(a1-3)]Gal(b1-3)GlcNAc(b1-6)GalNAc
# In short: as §1
# [24] = target: Fuc(a1-2)[GalNAc(a1-3)]Gal(b1-4)Glc
# In short: as §1
# [25] = target: Fuc(a1-2)[GalNAc(a1-3)]Gal(b1-4)GlcNAc
# In short: as §1
# [26] = target: Fuc(a1-2)[GalNAc(a1-3)]Gal(b1-4)GlcNAc(b1-2)Man
# In short: as §1
# [27] = target: Fuc(a1-2)[GalNAc(a1-3)]Gal(b1-4)GlcNAc(b1-2)Man(a1-3)[Fuc(a1-2)[GalNAc(a1-3)]Gal(b1-4)GlcNAc(b1-2)Man(a1-6)]Man(b1-4)GlcNAc(b1-4)GlcNAc
# In short: as §1
# [28] = target: Fuc(a1-2)[GalNAc(a1-3)]Gal(b1-4)GlcNAc(b1-2)Man(a1-3)[Fuc(a1-2)[GalNAc(a1-3)]Gal(b1-4)GlcNAc(b1-2)Man(a1-6)]Man(b1-4)GlcNAc(b1-4)[Fuc(a1-6)]GlcNAc
# In short: as §1
# [29] = target: Fuc(a1-2)[GalNAc(a1-3)]Gal(b1-4)GlcNAc(b1-3)Gal(b1-4)GlcNAc
# In short: as §1
# [30] = target: Fuc(a1-2)[GalNAc(a1-3)]Gal(b1-4)GlcNAc(b1-3)Gal(b1-4)GlcNAc(b1-3)Gal(b1-4)GlcNAc
# In short: as §1
# [31] = target: Fuc(a1-2)[GalNAc(a1-3)]Gal(b1-4)GlcNAc(b1-3)GalNAc
# In short: as §1
# [32] = target: Fuc(a1-2)[GalNAc(a1-3)]Gal(b1-4)GlcNAc(b1-3)[Fuc(a1-2)[GalNAc(a1-3)]Gal(b1-4)GlcNAc(b1-6)]GalNAc
# In short: as §1
# [33] = target: Fuc(a1-2)[GalNAc(a1-3)]Gal(b1-4)GlcNAc(b1-6)GalNAc
# In short: as §1
# [34] = target: Fuc(a1-2)[GalNAc(a1-3)]Gal(b1-4)[Fuc(a1-3)]GlcNAc
# In short: as §1
# [35] = target: Fuc(a1-2)[GalNAc(a1-3)]Gal(b1-4)[Fuc(a1-3)]GlcNAc(b1-3)GalNAc
# In short: as §1
# [36] = target: Fuc(a1-2)[GalNAc(a1-4)]Gal(b1-4)GlcNAc
# In short: as §1
# [37] = target: Fuc(a1-2)[GalNAc(b1-3)]Gal
# In short: as §1
# Fuc(a1-3)GlcNAc = target: Fuc(a1-3)GlcNAc
# In short: as §1
# [38] = target: Fuc(a1-3)[Gal(b1-4)]Glc6S
# In short: as §1
# [39] = target: Fuc(a1-3)[Gal(b1-4)]GlcNAc
# In short: as §1
# [40] = target: Fuc(a1-3)[Gal(b1-4)]GlcNAc(b1-2)Man
# In short: as §1
# [41] = target: Fuc(a1-3)[Gal(b1-4)]GlcNAc(b1-2)Man(a1-3)[Fuc(a1-3)[Gal(b1-4)]GlcNAc(b1-2)Man(a1-6)]Man(b1-4)GlcNAc(b1-4)GlcNAc
# In short: as §1
# [42] = target: Fuc(a1-3)[Gal(b1-4)]GlcNAc(b1-2)Man(a1-3)[Fuc(a1-3)[Gal(b1-4)]GlcNAc(b1-2)Man(a1-6)]Man(b1-4)GlcNAc(b1-4)[Fuc(a1-6)]GlcNAc
# In short: as §1
# [43] = target: Fuc(a1-3)[Gal(b1-4)]GlcNAc(b1-3)Gal(b1-3)[Fuc(a1-4)]GlcNAc
# In short: as §1
# [44] = target: Fuc(a1-3)[Gal(b1-4)]GlcNAc(b1-3)Gal(b1-4)[Fuc(a1-3)]GlcNAc
# In short: as §1
binder,measurement,setting,value
B1,glycan array binding signal (z-score),[1],-0.232
same,glycan array binding signal (z-score),[2],-0.233
same,glycan array binding signal (z-score),[3],-0.25
same,glycan array binding signal (z-score),[4],-0.199
same,glycan array binding signal (z-score),[5],-0.206
same,glycan array binding signal (z-score),[6],-0.236
same,glycan array binding signal (z-score),[7],-0.241
same,glycan array binding signal (z-score),[8],-0.23
same,glycan array binding signal (z-score),[9],-0.208
same,glycan array binding signal (z-score),[10],-0.096
same,glycan array binding signal (z-score),[11],-0.224
same,glycan array binding signal (z-score),[12],-0.226
same,glycan array binding signal (z-score),[13],-0.201
same,glycan array binding signal (z-score),[14],0.138
same,glycan array binding signal (z-score),[15],-0.084
same,glycan array binding signal (z-score),[16],-0.249
same,glycan array binding signal (z-score),[17],-0.007
same,glycan array binding signal (z-score),[18],-0.24
same,glycan array binding signal (z-score),[19],-0.251
same,glycan array binding signal (z-score),[20],-0.239
same,glycan array binding signal (z-score),[21],-0.232
same,glycan array binding signal (z-score),[22],-0.153
same,glycan array binding signal (z-score),[23],-0.229
same,glycan array binding signal (z-score),[24],-0.25
same,glycan array binding signal (z-score),[25],-0.257
same,glycan array binding signal (z-score),[26],-0.241
same,glycan array binding signal (z-score),[27],-0.241
same,glycan array binding signal (z-score),[28],-0.239
same,glycan array binding signal (z-score),[29],-0.235
same,glycan array binding signal (z-score),[30],-0.22
same,glycan array binding signal (z-score),[31],-0.231
same,glycan array binding signal (z-score),[32],-0.216
same,glycan array binding signal (z-score),[33],-0.221
same,glycan array binding signal (z-score),[34],-0.239
same,glycan array binding signal (z-score),[35],-0.052
same,glycan array binding signal (z-score),[36],-0.256
same,glycan array binding signal (z-score),[37],-0.236
same,glycan array binding signal (z-score),Fuc(a1-3)GlcNAc,-0.248
same,glycan array binding signal (z-score),[38],-0.25
same,glycan array binding signal (z-score),[39],-0.253
same,glycan array binding signal (z-score),[40],-0.208
same,glycan array binding signal (z-score),[41],-0.232
same,glycan array binding signal (z-score),[42],-0.153
same,glycan array binding signal (z-score),[43],-0.256
same,glycan array binding signal (z-score),[44],-0.224
